Measurements: PMC4336329 (PLoS ONE, 2015)
Screen size: about 310,000 compounds; about 2,200 (0.71%) showed an effect of 50% or more. Effects have a minus sign here. This is one part of the list.

Biological target: human ether-à-go-go-related gene (hERG) potassium channel (human, UniProt Q12809)
Experiment: primary screen, population patch clamp on CHO cells stably expressing hERG

human ether-à-go-go-related gene (hERG) potassium channel, sequence (Q12809 whole entry, looked up): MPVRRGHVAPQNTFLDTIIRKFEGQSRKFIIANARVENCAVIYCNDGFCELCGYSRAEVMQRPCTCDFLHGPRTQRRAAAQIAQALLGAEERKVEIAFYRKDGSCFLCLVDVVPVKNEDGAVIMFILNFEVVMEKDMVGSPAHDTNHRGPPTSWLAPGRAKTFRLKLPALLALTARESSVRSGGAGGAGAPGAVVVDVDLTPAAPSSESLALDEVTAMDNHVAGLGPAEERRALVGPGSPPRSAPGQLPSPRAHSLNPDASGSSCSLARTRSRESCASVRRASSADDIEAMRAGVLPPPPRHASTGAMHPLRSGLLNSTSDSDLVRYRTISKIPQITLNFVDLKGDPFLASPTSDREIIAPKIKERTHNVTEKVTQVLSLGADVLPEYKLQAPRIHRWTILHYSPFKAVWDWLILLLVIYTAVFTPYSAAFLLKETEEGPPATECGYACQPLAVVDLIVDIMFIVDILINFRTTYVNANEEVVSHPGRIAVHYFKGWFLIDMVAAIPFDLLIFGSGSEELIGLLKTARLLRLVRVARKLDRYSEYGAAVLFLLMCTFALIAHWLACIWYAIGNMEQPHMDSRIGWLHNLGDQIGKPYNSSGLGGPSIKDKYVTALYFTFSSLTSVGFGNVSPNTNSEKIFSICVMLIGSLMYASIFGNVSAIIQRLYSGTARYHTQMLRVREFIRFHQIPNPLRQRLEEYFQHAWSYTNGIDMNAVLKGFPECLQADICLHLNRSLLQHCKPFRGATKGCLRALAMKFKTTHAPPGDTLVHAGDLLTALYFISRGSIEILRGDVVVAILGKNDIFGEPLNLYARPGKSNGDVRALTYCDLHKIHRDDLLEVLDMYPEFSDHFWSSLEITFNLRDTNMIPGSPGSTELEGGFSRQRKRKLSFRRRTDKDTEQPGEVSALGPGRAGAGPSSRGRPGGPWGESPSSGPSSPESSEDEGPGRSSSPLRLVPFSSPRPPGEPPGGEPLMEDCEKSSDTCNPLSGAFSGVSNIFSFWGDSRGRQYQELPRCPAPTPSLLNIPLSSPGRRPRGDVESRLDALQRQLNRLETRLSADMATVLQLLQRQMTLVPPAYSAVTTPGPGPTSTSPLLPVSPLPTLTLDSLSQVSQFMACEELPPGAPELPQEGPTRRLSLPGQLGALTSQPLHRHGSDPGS

| SMILES | hERG current change (%, negative = inhibition) at 1uM [%] |
| --- | --- |
| N#CC1(C#N)C2=C(CCCC2)NC(c2ccccc2)C1(C#N)C#N (centres unmarked) | 16.3 |
| CCn1c(CSc2nnc(-c3ccc4c(c3)OCO4)o2)nc2cc(S(=O)(=O)N(C)C)ccc21 | 2.97 |
| O=C(C1=NNC2C(=O)N(c3ccccc3)C(=O)C12)c1nc(Cl)ccc1Cl (centres unmarked) | 7.09 |
| COc1cc2ncnc(NCCc3ccccc3)c2cc1OC | 6.17 |
| O=C(c1ccccn1)N(c1ccccc1)C1(C(=O)NC2CCCCC2)CCCCC1 | -1.28 |
| O=C(CN1C(=O)NC2(CCc3ccccc32)C1=O)Nc1cccc(F)c1 (centres unmarked) | -0.7 |
| CC(=O)N1CCN(C(=O)CSc2nnc(C)n2-c2ccccc2)CC1 | 8.5 |
| CCOC(=O)C1=C(CSc2nccn2C)NC(=O)NC1c1ccc(OC)cc1 (centres unmarked) | 3.59 |
| COc1ccc(C(CNC(=O)COc2ccc(C)c(C)c2)N2CCCCC2)cc1 (centres unmarked) | 4.01 |
| COCCNC(=O)C(C)Oc1ccc(Cl)cc1Cl (centres unmarked) | 10 |
| COc1ccc(NCc2nnc(-c3ccccc3)o2)cc1 | 8.71 |
| CC(C)c1ccc(NNC(=O)C2CCC2)cc1 | 12.4 |
| N#CC(C(=O)C1CCCCC1)c1nc2ccccc2[nH]1 (centres unmarked) | 5.52 |
| Cc1c(C)c2ccc(OCC(=O)N3CCN(C(=O)C4COc5ccccc5O4)CC3)cc2oc1=O (centres unmarked) | 1.18 |
| COc1ccc2cc(-c3cc(C(=O)O)c4ccccc4n3)ccc2c1 | 11.4 |
| O=C1[C@H]2[C@H](ON3CCCC[C@H]23)C(=O)N1c1cccc(C(F)(F)F)c1 | 14.8 |
| N=C1C(c2ccccc2)=C(O)CN1CCCO | 7.75 |
| COc1cccc(CNC(=O)c2csc3c2CCCC3)c1 | 11.5 |
| N#Cc1c(Cl)cccc1N1CCCC1 | 13.6 |
| Cc1ccc(CN2CCN(/N=C/c3cc(Br)ccc3F)CC2)cc1 | 16.9 |
| Cc1nn(C)cc1C(C(=O)NC1CCCCC1)N(Cc1ccccc1Cl)C(=O)c1cnccn1 (centres unmarked) | 6.25 |
| O=c1c2ccccc2nc(CSc2nnnn2-c2ccccc2)n1-c1cccc(C(F)(F)F)c1 | 15.6 |
| COc1cccc(NC(=O)CN(C)C(=O)/C=C/c2ccc3ccccc3n2)c1 | 7.44 |

| SMILES | hERG current change (%, negative = inhibition) at 1uM [%] |
| --- | --- |
| CCOC(=O)c1ccc(CN(Cc2ccccc2)S(=O)(=O)c2cccc([N+](=O)[O-])c2)cc1 | 15.2 |
| C/C(=N/NC(=O)CCc1ccccc1)c1ccc2c(c1)OCO2 | 19.2 |
| Cc1cccc(N2C(=O)C(O)=C(C(=O)c3cccs3)C2c2ccc(Cl)cc2)n1 (centres unmarked) | 4.89 |
| CSCCC1NC(=O)N(CC(=O)Nc2cc(C)on2)C1=O (centres unmarked) | 9.03 |
| COC(=O)CCC(=O)N1CCc2cc(S(=O)(=O)N3CCc4ccccc43)ccc21 | 12.9 |
| COc1cccc(C(C(=O)NCC2CCCO2)N(CC2CCCO2)C(=O)CN2C(=O)c3ccccc3S2(=O)=O)c1 (centres unmarked) | 12.5 |
| CCc1ncc(CN2CCCC(C(=O)Nc3cccc(-c4cccc(C)c4)c3)C2)cn1 (centres unmarked) | 7.1 |
| Nc1cc(=O)nc(SCC(=O)Nc2ccccc2)n1-c1ccccc1 | 15.5 |
| CCOc1ccc(-c2nn(-c3ccccc3)cc2/C=C(\C#N)S(=O)(=O)c2ccccc2)cc1C | 8.73 |
| CC(=O)N/C(=C/c1ccc2c(c1)OCO2)C(=O)NCc1ccccc1 | 8.28 |
| O=C(COC(=O)c1ccc(S(=O)(=O)NCc2ccco2)cc1)c1ccccc1 | -1.51 |
| Oc1ccccc1N1CCN(c2nnnn2-c2ccccc2)CC1 | 10.2 |
| CN(C)Cc1c(O)ccc2c3c(c(=O)oc12)CCCCC3 | 10.4 |
| O=C(Nc1cc2nn(-c3ccccc3)nc2cc1Cl)c1ccco1 | 16.3 |
| Cc1ccc(NNC(=O)c2snnc2C)cc1Cl | 4.86 |
| Cc1ccc(C)c(S(=O)(=O)N2CCN(C(=O)c3cccn3C)CC2)c1 | 10.1 |
| O=C(O)CCN1C(=O)C2C3C=CC(C2C1=O)C1C(=O)N(CCC(=O)O)C(=O)C31 (centres unmarked) | 5.87 |
| Cc1ccc2nc(-c3ccccc3)c(CC(=O)O)c(C(=O)O)c2c1 | 14.3 |
| CC(=O)C1=C(O)C(=O)N(c2ccc(Br)cc2)C1c1ccc([N+](=O)[O-])cc1 (centres unmarked) | 4.17 |
| COc1ccc(C(=O)n2nc(-c3ccc(OC)cc3)nc2N)cc1 | 5.08 |
| CN(C)c1ccc(/C(=N\O)c2ccccc2)cc1 | 3.86 |
| CNc1nn(-c2cccc(Cl)c2)nc1N | 9.22 |
| CC(=O)c1c(C)[nH]c(C(=O)NCc2ccc(C)cc2)c1C | 15.2 |

| SMILES | hERG current change (%, negative = inhibition) at 1uM [%] |
| --- | --- |
| CCn1c(SCc2nc3ccccc3c(=O)[nH]2)nc2ccccc2c1=O | 15.9 |
| COc1ccccc1NS(=O)(=O)c1cccc(NC(=O)CCNC(=O)c2ccccc2OC)c1 | -6.17 |
| CCOc1ccc(NC(=O)NCCN2CCN(c3ccccc3F)CC2)cc1 | -22.7 |
| COc1cccc(N=Cc2c(O)n(Cc3ccco3)c(=O)[nH]c2=O)c1 | 18.4 |
| C=CCC1(Cl)C(=O)C(Cl)=C(N2CCOCC2)C1(OC)OC (centres unmarked) | 13.6 |
| CC1=CC(C)(C)Nc2ccc(OC(=O)CN3C(=O)CCC3=O)cc21 | 7.7 |
| CCOc1ccc(Br)cc1CN(CC)CC.Cl | 8.54 |
| COC(=O)c1ccc(CN2CCC(Oc3ccc(C(=O)N4CCCCC4)cc3)CC2)cc1 | -11.3 |
| Cn1c(SCC(=O)Nc2ncc(C(F)(F)F)cc2Cl)nnc1-c1ccc(Cl)cc1 | -9.54 |
| Cc1ccc(NC(=O)Cn2c([N+](=O)[O-])cnc2C)cc1Cl | 13 |
| CCS(=O)(=O)N1CCCC(C(=O)Oc2ccc(Br)cc2)C1 (centres unmarked) | 5.62 |
| CC(C)(C)c1ccc(NC(=O)c2ccc3c(c2)S(=O)(=O)c2ccccc2C3=O)cc1 | 18.7 |
| C/C(CC(=O)Nc1ccc(Cl)cn1)=N\NC(=O)Cc1cccs1 | 6.89 |
| COc1ccc(C2=NO[C@@H]3C(=O)N(C4CCCCC4)C(=O)[C@H]23)cc1OC | -6.55 |
| CCOC(=O)CNc1ncc(C(F)(F)F)cc1Cl | 14.7 |
| COc1ccccc1NC(=S)NCCSc1ccc(Cl)cc1 | 7.58 |
| COc1cc(C)cc(C(=O)O)c1C1=C(O)c2cccc(O)c2C(=O)C1=O | 4.88 |
| COC(=O)c1cc(CNC(=O)C(C)NS(=O)(=O)c2ccc(C)c(C)c2)ccc1OC (centres unmarked) | 13.8 |
| CCCN(CCC)CC(O)CN1C(=O)NC(C)(C)C1=O (centres unmarked) | 10.2 |
| COc1ccc(C)cc1N(CC(=O)N1CCCCCC1)S(=O)(=O)c1ccccc1 | 3.68 |
| CC1=CC(C)C2C(=O)N(O)C(=O)C2C1 (centres unmarked) | 12 |
| Cc1ccc(C(=O)N2CCN(C(=O)C3CCCO3)CC2)cc1 (centres unmarked) | 2.84 |
| COc1ccc(S(=O)(=O)N2CCCC(C(=O)NCc3ccncc3)C2)cc1Cl (centres unmarked) | -0.994 |

| SMILES | hERG current change (%, negative = inhibition) at 1uM [%] |
| --- | --- |
| O=C(CN1CCCc2ccccc21)NCCc1ccc(F)cc1 | 5.82 |
| CC(=O)NCCC(=O)N1CCc2c([nH]c3ccccc23)C1c1cccc(Cl)c1 (centres unmarked) | 9.24 |
| CSCCC(NC(=O)c1ccccc1)C(=O)NCCc1ccccc1 (centres unmarked) | 4.72 |
| CCOCCCNC(=O)c1ccc2c(c1)ncn2-c1ccc(CC)cc1 | -5.28 |
| O=C(COC(=O)C1(c2ccccc2F)CCCC1)N1CCOCC1 | 15.1 |
| CN(CCOc1ccc(Br)cc1)C(=O)CNC(=O)c1ccc2ccccc2c1 | 10.2 |
| CCOc1ccc(/C=N/Nc2ccc(Cl)nn2)c(O)c1 | 15.3 |
| COCCNC(=O)c1nn(-c2cc(OC)cc(OC)c2)c(=O)c2ccccc12 | 14.4 |
| COc1cc2nc(CN(C)Cc3ccc(Cl)cc3)[nH]c(=O)c2cc1OC | 9.46 |
| O=C(NCc1nnc(SCC(=O)N2CCC(Cc3ccccc3)CC2)o1)c1ccccc1F | 10.1 |
| CC(C)C(Sc1nc(-c2ccccc2)cc(-c2ccccc2)c1C#N)C(=O)O (centres unmarked) | 9.23 |
| O=C1CC(c2cccc(F)c2)C2=C(CCCC2=O)N1 (centres unmarked) | 6.26 |
| Cc1cccc(C)c1NC(=O)CN1C(=O)N(C)Cc2ccccc21 | 15.8 |
| NC(=O)c1sc2nc3c(c(-c4ccccc4)c2c1N)CCC3 | -3.97 |
| Cc1ccc(N2CCCCn3c2nc2c3c(=O)n(CC(=O)O)c(=O)n2C)cc1 | 7.61 |
| Cc1ccc(S(=O)(=O)NCCC(=O)OCC(=O)N(Cc2ccccc2)C(C)(C)C)cc1 | 16.9 |
| CN(C)c1nc(C#N)nc(N(C)C)n1 | 7.77 |
| COc1cccc(C2(O)CCN(C(=O)C3CC3)CC2)c1 | 12.7 |
| COc1cccc(N2CC(C(=O)Nc3nnc(SCC(=O)N4CCCC4)s3)CC2=O)c1 (centres unmarked) | 6.03 |
| O=C(C1=C(O)C(=O)N(CC2CCCO2)C1c1ccc(Cl)cc1)c1ccco1 (centres unmarked) | 13.5 |
